# About 100 (0.036%) of roughly 280,000 compounds were called active. Inconclusive means that the source gave no clear call. Such entries were picked first, then a sample of the others. Calls come from the whole dose curve; as a rule, active = well fitted inhibition curve with a large enough effect in the signal ratio, with a control signal flat (not every such curve was filed as active); inconclusive = small, poorly fitted or top-dose-only effect, or effect the other way, or a change in a side signal; inactive = no such curve, though single readings can be large or run the other way; the % refers to the signal ratio. A potency beside an inconclusive call is a rough fit, not a confirmed value. “Side channel” marks fits to a control or component signal instead of the main read-out.
# Molecular target: Muscleblind-like protein 1 (Homo sapiens) (UniProt Q9NR56)
# Chain of UniProt Q9NR56 (Q9NR56 whole entry, looked up): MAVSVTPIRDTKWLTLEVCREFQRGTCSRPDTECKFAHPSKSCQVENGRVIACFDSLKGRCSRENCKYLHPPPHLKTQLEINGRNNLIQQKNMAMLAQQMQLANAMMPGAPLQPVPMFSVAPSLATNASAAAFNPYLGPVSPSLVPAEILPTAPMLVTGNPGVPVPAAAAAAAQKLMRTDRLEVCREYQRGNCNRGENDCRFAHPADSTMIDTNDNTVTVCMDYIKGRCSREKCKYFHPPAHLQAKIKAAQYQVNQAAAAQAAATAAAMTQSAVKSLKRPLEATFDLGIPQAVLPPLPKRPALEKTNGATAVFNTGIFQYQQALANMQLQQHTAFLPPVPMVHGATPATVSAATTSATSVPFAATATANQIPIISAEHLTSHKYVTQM
# Assay: qHTS Assay for Inhibitors of MBNL1-poly(CUG) RNA binding
# Settings: TR-FRET MBNL1-His/biotin-(CUG)12 binding, 665/545 ratio; series mostly up to 57.5 µM
# Outline: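 Inhibition of protein-RNA binding appears as loss of TR-FRET between terbium anti-His antibody on MBNL1-His and streptavidin-XL665 on biotin-(CUG)12. Activity is normalized to buffer-only and uninhibited-complex controls.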
# Potency is the fitted concentration of half-maximal effect; tags give direction and shape of the fitted curve or compound fluorescence and quenching.
row,SMILES,Potency
1,CCN(C(=O)CCN1C(=O)S/C(=C\c2ccccc2)C1=O)C1CCS(=O)(=O)C1 (stereo not given),"inconclusive: 15.8 µM [quencher, side channel, partial curve]"
2,CCC1CCCCN1CCCNC(=O)c1ccc(/C=C2/Sc3ccccc3NC2=O)cc1 (stereo not given),"inconclusive: 11.2 µM [quencher, side channel, partial curve]"
3,O=C(/C=C/c1ccc(OCc2c(F)cccc2Cl)cc1)N1CCOCC1,"inconclusive: 39.8 µM [quencher, side channel, single point]"
4,COc1cc2c(cc1OC)C(c1cccc([N+](=O)[O-])c1)=NCC2,"inconclusive: 12.6 µM [quencher, side channel, partial curve]"
5,CC1=NNC(=O)C1CC(=O)N/N=C/C(Br)=C/c1ccccc1 (stereo not given),"inconclusive: 28.2 µM [quencher, side channel, single point]"
6,O=C1Nc2ccccc2Nc2ncccc21,"inconclusive: 79.4 µM [inhibitor, single point]"
7,CN(Cc1ccccc1)C(=O)CN1C(=O)c2ccc([N+](=O)[O-])cc2C1=O,"inconclusive: 15.8 µM [quencher, side channel, partial curve]"
8,Cc1cc(Br)c2nc3c(c(C(=O)O)c2c1)CCCCC3,"inconclusive: 17.8 µM [fluorescent, side channel, partial curve]"
9,O=[N+]([O-])c1ccccc1Nc1ccc(O)cc1,"inconclusive: 8.91 µM [quencher, partial curve]"
10,O=[N+]([O-])c1cc(Cl)ccc1Nc1ccccc1,"inconclusive: 11.2 µM [quencher, side channel, partial curve, poor fit]"
11,C/C(=N\NC(=O)CCc1c[nH]c2ccccc12)c1cccc([N+](=O)[O-])c1,"inconclusive: 25.1 µM [activator, single point]"
12,CCC(C)NC(=O)C1CCN(S(=O)(=O)c2cc([N+](=O)[O-])ccc2Cl)CC1 (stereo not given),"inconclusive: 14.1 µM [quencher, side channel, partial curve]"
13,N#CCCN1CCN(S(=O)(=O)c2ccc(S(=O)(=O)NC3CC3)cc2)CC1,"inconclusive: 39.8 µM [quencher, side channel, single point]"
14,COc1cc(-c2nnc(-c3ccc(S(=O)(=O)c4ccccc4)cc3)o2)cc(OC)c1OC,inactive
15,O=C(Cn1cnc([N+](=O)[O-])n1)N/N=C/c1ccc2ccccc2c1,"inconclusive: 11.2 µM [quencher, side channel, single point]"
